Source: PubChem BioAssay AID686978 (National Center for Advancing Translational Sciences (NCATS), 2013)
Values joined by “and” are separate entries in the source; they are usually repeats but may differ in a detail not shown here. Identical values can stand only once. In all, about 420,000 compounds went through this assay and about 64,000 (15%) were called active. This list was built around the results that the source calls inconclusive (neither active nor inactive); the mix of calls is not that of the screen. The call rests on the fitted dose curve; in most records, active means well fitted inhibition curve with a large enough effect; inconclusive means small, poorly fitted or top-dose-only effect; inactive means flat fitted curve, though single readings scatter. Potencies of inconclusive entries are left out as doubtful fits. A structure can be active in one record and inactive in another.
On the % scale 0 is the no-effect control and ±100 the full control effect; potency means the concentration at half of the fitted maximal effect; tags describe the fitted curve by direction and shape.

Experiment: qHTS for Inhibitors of human tyrosyl-DNA phosphodiesterase 1 (TDP1): qHTS in cells in absence of CPT; further: nearly all actives have a fitted effect of over 55% in size
Conditions: DT40 Tdp1-/- hTDP1 cells, no CPT, ATP luminescence, 48 h; activity change, negative = growth inhibition: at 46.2 µM (top of the series) unless noted
Procedure, shortened: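 Growth kinetics read by CellTiter-Glo luminescence after ≥48 hr at 37 °C. Cells: DT40 Tdp1-/- stably carrying human TDP1, 400 per well, compound exposure in the absence of CPT (DMSO vehicle).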
In the case of `COC(=O)[C@]1(C)N[C@H](CN(C)C(=O)C2CCCCC2)[C@@H]2C(=O)N(C)C(=O)[C@@H]21`, the “activity change, negative = growth inhibition” value is reported as inactive: -7.56%.
In the case of `CCCCCCCCCCCCCCCC[n+]1ccc(/C=N/O)cc1`, the Potency is reported as active: 1.64 µM.
With `COc1ccc(C(=O)NNC(=O)CSc2nc3c([nH]2)c(=O)n(C)c(=O)n3C)cc1` the “activity change, negative = growth inhibition” value was inactive: 5.51%.
With `COc1ccc(NC(=O)C(=O)NCCc2csc3nc(-c4ccccc4C)nn23)cc1` the Potency was inconclusive [inhibitor, single point].
In the case of `CC(C)N1CCN(C(=O)c2ccc(NC(=O)c3ccc(Br)o3)cc2)CC1`, the “activity change, negative = growth inhibition” value is reported as inactive: 2.01%.
In the case of `O=C(c1ccc2c3c(cccc13)CC2)C1CCCN(Cc2cccnc2)C1` (stereo unspecified), the Potency is reported as inconclusive [inhibitor, single point].
In the case of `COc1ccccc1-n1c(SCC(=O)OC(C)C)nc2cccnc21`, the “activity change, negative = growth inhibition” value is reported as inactive: 21.7%.
In the case of `C=C(c1ccc(O)cc1)c1ccc(O)cc1`, the Potency is reported as inconclusive [inhibitor, partial curve, poor fit].
In the case of `CCOc1ccc(CNC(=O)CN2C(=O)CSc3c2c(C)nn3-c2ccccc2)cc1`, the “activity change, negative = growth inhibition” value is reported as inactive: -14.4%.
In the case of `COc1ccc(CN2CC[C@H]3C=CC[C@@H](C(=O)Nc4ccc(Cl)cc4Cl)[C@H]3C2=O)cc1OC`, the Potency is reported as inconclusive [inhibitor, single point].
In the case of `Cc1cccc(Cc2c(C)nc3c(C(=O)N4CCN(Cc5ccc6c(c5)OCO6)CC4)cnn3c2C)c1`, the Potency is reported as inconclusive [inhibitor, single point].
For `Fc1ccc2cnc(-c3ccccc3)c(-c3cccc(C(F)(F)F)c3)c2c1`, the Potency was active: 18.4 µM.
With `COc1cccc(/C=N/NC(=O)c2[nH]nc3c2CCc2ccccc2-3)c1O` the Potency was active: 2.91 µM.
With `COC(=O)CSc1nnc(CNC(=O)c2ccccc2F)n1-c1ccc(F)cc1` the Potency was inconclusive [inhibitor, partial curve, poor fit].
With `COc1ccc(S(=O)(=O)N(CCc2ccccc2)CC(=O)NCc2ccc(C)cc2)cc1` the Potency was active: 20.6 µM.
For `O=S(=O)(Nc1cc(Cl)ccc1-n1cncn1)c1cc(Br)ccc1Br`, the Potency was active: 5.8 µM.
For `CCCCOc1ccc(S(=O)(=O)Nc2cccnc2)cc1`, the Potency was active: 10.3 µM.
With `Cc1cccc(NC(=O)c2ccc(S(=O)(=O)N3CC(C)OC(C)C3)cc2)n1` (stereo unspecified) the Potency was inconclusive [inhibitor, partial curve].
In the case of `COc1ccc(Br)cc1-c1nc(C)c(C(C)=O)n1O`, the activity change, negative = growth inhibition is reported as inconclusive: -30.1% [inhibitor].
With `O=C(NCC(c1cccnc1)N1CCN(Cc2ccccc2)CC1)C(=O)Nc1ccc(F)cc1` (stereo unspecified) the Potency was active: 23.1 µM.
With `Cc1cc(C)c(C)c(S(=O)(=O)NCc2ccc(C(=O)NCC3CCCO3)cc2)c1C` (stereo unspecified) the “activity change, negative = growth inhibition” value was inactive: -18.7%.
In the case of `CSCCC1NC2(C(=O)Nc3c(Cl)cccc32)[C@@H]2C(=O)N(C3CCCC3)C(=O)[C@H]12` (stereo partly specified), the Potency is reported as inconclusive [inhibitor, partial curve].
For `COc1cccc(CNC(=O)C2CCCN(c3nnc(-n4c(C)ccc4C)s3)C2)c1` (stereo unspecified), the Potency was inconclusive [inhibitor, single point].
With `O=C(O)c1cccc(CSc2nc(-c3ccc(Cl)cc3)cc(C(F)(F)F)n2)c1` the “activity change, negative = growth inhibition” value was inactive: -19.3%.
With `CCN(N=O)c1ccc(/C=C2\C=Cc3ccccc32)cc1` the “activity change, negative = growth inhibition” value was inactive: -25.7%.
With `O=C(Nc1ccc(N2CCN(C(=O)c3ccco3)CC2)cc1)c1ccccc1F` the Potency was inconclusive [inhibitor, partial curve].
For `C=CCNC(=O)c1ccc2c(=O)n(CCCN3CCCC3=O)c(=S)[nH]c2c1`, the “activity change, negative = growth inhibition” value was inactive: 1.6%.
With `O=S1(=O)CC(N2CCN(CC3CC3)CC2)CN1Cc1cn(Cc2ccccc2C(F)(F)F)nn1` (stereo unspecified) the “activity change, negative = growth inhibition” value was inactive: -12.5%.
For `Cc1c2cnn(CC(=O)N3CCOCC3)c(=O)c2c(C)n1Cc1ccccc1F`, the “activity change, negative = growth inhibition” value was inactive: -17%.
For `O=c1c(O)c(-c2cccs2)oc2ccccc12`, the Potency was inconclusive [inhibitor, single point].
With `O=C(NCc1cccc(Br)c1)C1CC2Cn3c(nc4ccccc43)C2N1c1ccccc1` (stereo unspecified) the “activity change, negative = growth inhibition” value was inactive: -27.9%.
With `COc1ccc(OC)c(/C=N/NC(=S)NCCc2ccccc2)c1` the Potency was inconclusive [inhibitor, single point].
In the case of `Clc1cccc(/C(Cc2nc3ccccc3[nH]2)=N\Nc2ccccc2)c1`, the Potency is reported as inconclusive [inhibitor, single point].
In the case of `CC(C)c1ccc(NC(=O)CN(C)S(=O)(=O)c2ccc3c(c2)n(C)c(=O)c(=O)n3C)cc1`, the Potency is reported as inconclusive [inhibitor, single point].
With `COc1ccc(CNC(=O)Cn2ccc(NC(=O)OCc3ccccc3)nc2=O)cc1` the “activity change, negative = growth inhibition” value was inactive: -9.43%.
With `Cc1cnc(C)c(-c2cccc3c2OC(CNC(=O)/C=C/c2ccc(F)c(F)c2)C3)n1` (stereo unspecified) the Potency was inconclusive [inhibitor, single point].
With `O=S(=O)(NCc1ccccn1)c1ccc(Cl)c(C(F)(F)F)c1` the “activity change, negative = growth inhibition” value was inactive: 15.1%.
With `COc1cc(-c2nc(-c3ccccc3)c(-c3ccc(F)cc3)[nH]2)cc2c1OCO2` the Potency was inconclusive [inhibitor, single point].
In the case of `Cc1ccc(COn2c(-c3ccc(Cl)cc3)nc3ccc([N+](=O)[O-])cc32)cc1`, the activity change, negative = growth inhibition is reported as inconclusive: -31.6% [inhibitor].
In the case of `COc1ccc(CN2CC[C@H]3C=CC[C@@H](C(=O)Nc4ccccc4)[C@H]3C2=O)cc1OC`, the Potency is reported as “inactive and active: 10 µM”.
For `O=C(O)COc1ccc(/C=N/NC(=O)c2cccc3ccccc23)cc1`, the Potency was inconclusive [inhibitor, partial curve].
In the case of `Cc1cccc(S(=O)(=O)c2c(N)n(-c3ccccc3)c3nc4ccccc4nc23)c1`, the Potency is reported as inconclusive [inhibitor, single point].
For `FC(F)(F)c1cccc(Cc2noc(CN3CCC(c4ccncc4)CC3)n2)c1`, the Potency was active: 7.31 µM.
In the case of `CCOC(=O)C(CCSC)Nc1nc(Cl)nc(Nc2ccc(Cl)cc2)n1` (stereo unspecified), the activity change, negative = growth inhibition is reported as inconclusive: -31% [inhibitor].
In the case of `Cc1ccc(C2CC2c2n[nH]c(=S)n2-c2ccc(Cl)cc2)cc1` (stereo unspecified), the Potency is reported as inconclusive [inhibitor, single point].
With `Cc1ccc(S(=O)(=O)Nc2ccc(S(=O)(=O)N3CCCC3)cc2)cc1` the “activity change, negative = growth inhibition” value was inactive: 2.98%.
